Assay results as given in the supplement of paper PMC11876631.
± gives the standard deviation of the averaged measurements. Laboratory Escherichia coli strains with one amino-acid change in an essential protein, pooled on minimal glucose agar with carbenicillin or gentamicin at twice the control MIC (plus kanamycin and chloramphenicol for the plasmids), 48 h. Fold change of barcode share against drug-free plates; higher = less susceptible. Active = above 20 in both replicates (the paper's putatively resistant). '<' = one read or none on drug, '>' = one read or none on a drug-free plate. Shares are relative, so most strains fall below 1 when a few take over. Listed are strains with at least 15 reads on both drug-free plates, and hits; most hits rest on fewer reference reads. Replicate rank correlation about 0.5. Edits are read from barcodes.

target: Escherichia coli (laboratory strain); test: barcode share on antibiotic plates over drug-free plates; higher = less susceptible; details: antibiotic: gentamicin; 2× MIC (MIC 0.45 µg/mL)
Protocol: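 A pool of E. coli strains, each edited to carry one amino-acid change in an essential protein, was grown for 48 h on minimal glucose agar with or without antibiotic; strain barcodes were sequenced; mean of two replicates.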

Row | Protein | fold change of barcode share
1 | accA I200W (protein) MSLNFLDFEQPIAELEAKIDSLTAVSRQDEKLDINIDEEVHRLREKSVELTRKIFADLGAWQIAQLARHPQRPYTLDYVRLAFDEFDELAGDRAYADDKAIVGGIARLDGRPVMIIGHQKGRETKEKIRRNFGMPAPEGYRKALRLMQMAERFKMPIITFIDTPGAYPGVGAEERGQSEAIARNLREMSRLGVPVVCTVWGEGGSGGALAIGVGDKVNMLQYSTYSVISPEGCASILWKSADKAPLAAEAMGIIAPRLKELKLIDSIIPEPLGGAHRNPEAMAASLKAQLLADLADLDVLSTEDLKNRRYQRLMSYGYA | < 0.0226
2 | accA V102Q (protein) MSLNFLDFEQPIAELEAKIDSLTAVSRQDEKLDINIDEEVHRLREKSVELTRKIFADLGAWQIAQLARHPQRPYTLDYVRLAFDEFDELAGDRAYADDKAIQGGIARLDGRPVMIIGHQKGRETKEKIRRNFGMPAPEGYRKALRLMQMAERFKMPIITFIDTPGAYPGVGAEERGQSEAIARNLREMSRLGVPVVCTVIGEGGSGGALAIGVGDKVNMLQYSTYSVISPEGCASILWKSADKAPLAAEAMGIIAPRLKELKLIDSIIPEPLGGAHRNPEAMAASLKAQLLADLADLDVLSTEDLKNRRYQRLMSYGYA | < 0.0226
3 | ftsW I124Q (protein) MRLSLPRLKMPRLPGFSILVWISTALKGWVMGSREKDTDSLIMYDRTLLWLTFGLAAIGFIMVTSASMPIGQRLTNDPFFFAKRDGVYLILAFILAIITLRLPMEFWQRYSATMLLGSIILLMQVLVVGSSVKGASRWIDLGLLRIQPAELTKLSLFCYIANYLVRKGDEVRNNLRGFLKPMGVILVLAVLLLAQPDLGTVVVLFVTTLAMLFLAGAKLWQFIAIIGMGISAVVLLILAEPYRIRRVTAFWNPWEDPFGSGYQLTQSLMAFGRGELWGQGLGNSVQKLEYLPEAHTDFIFAIIGEELGYVGVVLALLMVFFVAFRAMSIGRKALEIDHRFSGFLACSIGIWFSFQALVNVGAAAGMLPTKGLTLPLISYGGSSLLIMSTAIMMLLRIDYETRLEKAQAFVRGSR | < 0.0175
4 | folE V11W (protein) MPSLSKEAALWHEALVARGLETPLRPPVHEMDNETRKSLIAGHMTEIMQLLNLDLADDSLMETPHRIAKMYVDEIFSGLDYANFPKITLIENKMKVDEMVTVRDITLTSTCEHHFVTIDGKATVAYIPKDSVIGLSKINRIVQFFAQRPQVQERLTQQILIALQTLLGTNNVAVSIDAVHYCVKARGIRDATSATTTTSLGGLFKSSQNTRHEFLRAVRHHN | < 0.0184
5 | folE M99W (protein) MPSLSKEAALVHEALVARGLETPLRPPVHEMDNETRKSLIAGHMTEIMQLLNLDLADDSLMETPHRIAKMYVDEIFSGLDYANFPKITLIENKMKVDEWVTVRDITLTSTCEHHFVTIDGKATVAYIPKDSVIGLSKINRIVQFFAQRPQVQERLTQQILIALQTLLGTNNVAVSIDAVHYCVKARGIRDATSATTTTSLGGLFKSSQNTRHEFLRAVRHHN | < 0.0129
6 | ftsA V57Q (protein) MIKATDRKLVVGLEIGTAKVAALVGEVLPDGMVNIIGVGSCPSRGMDKGGVNDLESQVKCVQRAIDQAELMADCQISSVYLALSGKHISCQNEIGMVPISEEEVTQEDVENVVHTAKSVRVRDEHRVLHVIPQEYAIDYQEGIKNPVGLSGVRMQAKVHLITCHNDMAKNIVKAVERCGLKVDQLIFAGLASSYSVLTEDERELGVCVVDIGGGTMDIAVYTGGALRHTKVIPYAGNVVTSDIAYAFGTPPSDAEAIKVRHGCALGSIVGKDESVEVPSVGGRPPRSLQRQTLAEVIEPRYTELLNLVNEEILQLQEKLRQQGVKHHLAAGIVLTGGAAQIEGLAACAQRVFHTQVRIGAPLNITGLTDYAQEPYYSTAVGLLHYGKESHLNGEAEVEKRVTASVGSWIKRLNSWLRKEF | < 0.0152
7 | ftsA V58A (protein) MIKATDRKLVVGLEIGTAKVAALVGEVLPDGMVNIIGVGSCPSRGMDKGGVNDLESVAKCVQRAIDQAELMADCQISSVYLALSGKHISCQNEIGMVPISEEEVTQEDVENVVHTAKSVRVRDEHRVLHVIPQEYAIDYQEGIKNPVGLSGVRMQAKVHLITCHNDMAKNIVKAVERCGLKVDQLIFAGLASSYSVLTEDERELGVCVVDIGGGTMDIAVYTGGALRHTKVIPYAGNVVTSDIAYAFGTPPSDAEAIKVRHGCALGSIVGKDESVEVPSVGGRPPRSLQRQTLAEVIEPRYTELLNLVNEEILQLQEKLRQQGVKHHLAAGIVLTGGAAQIEGLAACAQRVFHTQVRIGAPLNITGLTDYAQEPYYSTAVGLLHYGKESHLNGEAEVEKRVTASVGSWIKRLNSWLRKEF | 0.011 ± 0.0095
8 | ftsA V58D (protein) MIKATDRKLVVGLEIGTAKVAALVGEVLPDGMVNIIGVGSCPSRGMDKGGVNDLESVDKCVQRAIDQAELMADCQISSVYLALSGKHISCQNEIGMVPISEEEVTQEDVENVVHTAKSVRVRDEHRVLHVIPQEYAIDYQEGIKNPVGLSGVRMQAKVHLITCHNDMAKNIVKAVERCGLKVDQLIFAGLASSYSVLTEDERELGVCVVDIGGGTMDIAVYTGGALRHTKVIPYAGNVVTSDIAYAFGTPPSDAEAIKVRHGCALGSIVGKDESVEVPSVGGRPPRSLQRQTLAEVIEPRYTELLNLVNEEILQLQEKLRQQGVKHHLAAGIVLTGGAAQIEGLAACAQRVFHTQVRIGAPLNITGLTDYAQEPYYSTAVGLLHYGKESHLNGEAEVEKRVTASVGSWIKRLNSWLRKEF | 0.00904 ± 0.0037
9 | ftsA L382A (protein) MIKATDRKLVVGLEIGTAKVAALVGEVLPDGMVNIIGVGSCPSRGMDKGGVNDLESVVKCVQRAIDQAELMADCQISSVYLALSGKHISCQNEIGMVPISEEEVTQEDVENVVHTAKSVRVRDEHRVLHVIPQEYAIDYQEGIKNPVGLSGVRMQAKVHLITCHNDMAKNIVKAVERCGLKVDQLIFAGLASSYSVLTEDERELGVCVVDIGGGTMDIAVYTGGALRHTKVIPYAGNVVTSDIAYAFGTPPSDAEAIKVRHGCALGSIVGKDESVEVPSVGGRPPRSLQRQTLAEVIEPRYTELLNLVNEEILQLQEKLRQQGVKHHLAAGIVLTGGAAQIEGLAACAQRVFHTQVRIGAPLNITGLTDYAQEPYYSTAVGALHYGKESHLNGEAEVEKRVTASVGSWIKRLNSWLRKEF | < 0.0177
10 | fldA L51Q (protein) MAITGIFFGSDTGNTENIAKMIQKQLGKDVADVHDIAKSSKEDLEAYDILQLGIPTWYYGEAQCDWDDFFPTLEEIDFNGKLVALFGCGDQEDYAEYFCDALGTIRDIIEPRGATIVGHWPTAGYHFEASKGLADDDHFVGLAIDEDRQPELTAERVEKWVKQISEELHLDEILNA | < 0.0156
11 | fldA L52Q (protein) MAITGIFFGSDTGNTENIAKMIQKQLGKDVADVHDIAKSSKEDLEAYDILLQGIPTWYYGEAQCDWDDFFPTLEEIDFNGKLVALFGCGDQEDYAEYFCDALGTIRDIIEPRGATIVGHWPTAGYHFEASKGLADDDHFVGLAIDEDRQPELTAERVEKWVKQISEELHLDEILNA | < 0.0208
12 | ffh V135W (protein) MFDNLTDRLSRTLRNISGRGRLTEDNVKDTLREVRMALLEADVALPVVREFINRVKEKAVGHEVNKSLTPGQEFVKIVRNELVAAMGEENQTLNLAAQPPAVVLMAGLQGAGKTTSVGKLGKFLREKHKKKVLVWSADVYRPAAIKQLETLAEQVGVDFFPSDVGQKPVDIVNAALKEAKLKFYDVLLVDTAGRLHVDEAMMDEIKQVHASINPVETLFVVDAMTGQDAANTAKAFNEALPLTGVVLTKVDGDARGGAALSIRHITGKPIKFLGVGEKTEALEPFHPDRIASRILGMGDVLSLIEDIESKVDRAQAEKLASKLKKGDGFDLNDFLEQLRQMKNMGGMASLMGKLPGMGQIPDNVKSQMDDKVLVRMEAIINSMTMKERAKPEIIKGSRKRRIAAGCGMQVQDVNRLLKQFDDMQRMMKKMKKGGMAKMMRSMKGMMPPGFPGR | < 0.0149
13 | frr V69W (protein) MISDIRKDAEVRMDKCVEAFKTQISKIRTGRASPSLLDGIVVEYYGTPTPLRQLASVTVEDSRTLKINWFDRSMSPAVEKAIMASDLGLNPNSAGSDIRVPLPPLTEERRKDLTKIVRGEAEQARVAVRNVRRDANDKVKALLKDKEISEDDDRRSQDDVQKLTDAAIKKIEAALADKEAELMQF | 0.0342 ± 0.017
14 | ftsB L8W (protein) MGKLTLLWLAILVWLQYSLWFGKNGIHDYTRVNDDVAAQQATNAKLKARNDQLFAEIDDLNGGQEALEERARNELSMTRPGETFYRLVPDASKRAQSAGQNNR | < 0.0143
15 | ftsI F550W (protein) MKAAAKTQKPKRQEEHANFISWRFALLCGCILLALAFLLGRVAWLQVISPDMLVKEGDMRSLRVQQVSTSRGMITDRSGRPLAVSVPVKAIWADPKEVHDAGGISVGDRWKALANALNIPLDQLSARINANPKGRFIYLARQVNPDMADYIKKLKLPGIHLREESRRYYPSGEVTAHLIGFTNVDSQGIEGVEKSFDKWLTGQPGERIVRKDRYGRVIEDISSTDSQAAHNLALSIDERLQALVYRELNNAVAFNKAESGSAVLVDVNTGEVLAMANSPSYNPNNLSGTPKEAMRNRTITDVFEPGSTVKPMVVMTALQRGVVRENSVLNTIPYRINGHEIKDVARYSELTLTGVLQKSSNVGVSKLALAMPSSALVDTYSRFGLGKATNLGLVGERSGLYPQKQRWSDIERATFSFGYGLMVTPLQLARVYATIGSYGIYRPLSITKVDPPVPGERVFPESIVRTVVHMMESVALPGGGGVKAAIKGYRIAIKTGTAKKVGPDGRYINKYIAYTAGVAPASQPRFALVVVINDPQAGKYYGGAVSAPVWGAIMGGVLRTMNIEPDALTTGDKNEFVINQGEGTGGRS | < 0.0153
